# Assay results as given in a collection of fitness landscapes (doi:10.1016/j.celrep.2020.107928).
# Whole data set: some 81,000 sequences, median “one-hybrid fitness for binding NBS DNA” near -0.1, cut for the highest 2% near 0.36. The list shows a part of the results.
# B1: Caulobacter ParB omega fusion; a variant is named by its letters at X, in order, B8GW30 (parent)
# chain: MESVVVGEPGMSEGRRGLGRGLSALLGEVDAAPAQAPGEQLGGSREAPIEILQRNPDQPRRTFREEDLEDLSNSIREKGVLQPILVRPSPDTAGEYQIVAGERAWRAAQRAGLKTVPIMVRELDDLAVLEIGIIENVQRADLNVLEEALSYKVLMEKFERTQENIAQTIGKSXSHVANXMRLLXLPDEVQSYLVSGELTAXHARAIAAAADPVALAKQIIEGGLSVRETEALARKAPNLSAGKSKGGRPPRVKDTDTQALESDLSSVLGLDVSIDHRGSTGTLTITYATLEQLDDLCNRLTRGI
# Variants of: B1
# Assay: one-hybrid fitness for binding NBS DNA (the Noc-binding site; scaled: cognate 1, non-cognate 0); higher = stronger binding
# Conditions: with NBS DNA site
# Method in brief: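 Selection: bacterial one-hybrid in E. coli USO, HIS3 reporter with the site 19 bp from the promoter, 48 hours at 37°C on M9-minus-histidine plus 0.1 mM IPTG and 5 mM 3-AT. Libraries were Caulobacter ParB with four randomised specificity codons, sequenced on Illumina before and after selection. Fitness is the rescaled log change in variant-to-wild-type read ratio, anchored to the cognate and non-cognate sites.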
row,Variant,one-hybrid fitness for binding NBS DNA
1,PFEA,≤ 0.2
2,LYSY,≤ 0.2
3,ACTT,≤ 0.2
4,LYQR,≤ 0.2
5,PHNF,≤ 0.2
6,AEGT,≤ 0.2
7,CCRD,≤ 0.2
8,WSKE,≤ 0.2
9,KWCC,≤ 0.2
10,EAAN,≤ 0.2
11,QCSI,≤ 0.2
12,WAWS,≤ 0.2
13,APRS,≤ 0.2
14,LYAC,≤ 0.2
15,MVSY,≤ 0.2
16,KSNL,≤ 0.2
17,SHYD,≤ 0.2
18,YPNF,≤ 0.2
19,KKRY,≤ 0.2
20,QFHA,≤ 0.2
21,RLQH,≤ 0.2
22,VQWW,≤ 0.2
23,KTIF,≤ 0.2
24,RGCN,≤ 0.2

row,Variant,one-hybrid fitness for binding NBS DNA
1,RMFP,≤ 0.2
2,PARL,≤ 0.2
3,HEWS,≤ 0.2
4,SKTN,≤ 0.2
5,TESI,≤ 0.2
6,VSHD,≤ 0.2
7,VADY,≤ 0.2
8,HAPG,≤ 0.2
9,QRHN,0.437
10,WGYT,≤ 0.2
11,ERYS,≤ 0.2
12,FLLR,≤ 0.2
13,VGGC,≤ 0.2
14,PYGC,≤ 0.2
15,HGGS,≤ 0.2
16,HKMN,≤ 0.2
17,CFGG,≤ 0.2
18,FKEG,≤ 0.2
19,ANHR,≤ 0.2
20,SDAS,≤ 0.2
21,RDNY,≤ 0.2
22,VMYN,≤ 0.2
23,DFAH,≤ 0.2
24,NQFG,≤ 0.2

row,Variant,one-hybrid fitness for binding NBS DNA
1,QRKK,0.777
2,EPTF,≤ 0.2
3,ERQT,≤ 0.2
4,ATNF,≤ 0.2
5,RTNE,≤ 0.2
6,NGPF,≤ 0.2
7,WPFW,≤ 0.2
8,RHSN,≤ 0.2
9,SSRF,≤ 0.2
10,QDGM,≤ 0.2
11,IGTI,≤ 0.2
12,GIMG,≤ 0.2
13,MFKL,≤ 0.2
14,LQTW,≤ 0.2
15,PNNF,≤ 0.2
16,QQCE,≤ 0.2
17,TWPL,≤ 0.2
18,QHNS,0.419
19,SDKG,≤ 0.2
20,VTRT,≤ 0.2
21,NIRR,≤ 0.2
22,NEVG,≤ 0.2
23,PCPV,≤ 0.2
24,HSGG,≤ 0.2

row,Variant,one-hybrid fitness for binding NBS DNA
1,KFQR,≤ 0.2
2,DTRG,≤ 0.2
3,QSMA,≤ 0.2
4,PTHS,≤ 0.2
5,RPSI,≤ 0.2
6,ASQG,≤ 0.2
7,WTAL,≤ 0.2
8,RCML,≤ 0.2
9,LDKC,≤ 0.2
10,NDSV,≤ 0.2
11,QNPD,≤ 0.2
12,THVY,≤ 0.2
13,QHHK,≤ 0.2
14,SQHV,≤ 0.2
15,TAAT,≤ 0.2
16,TRLV,≤ 0.2
17,RVIG,≤ 0.2
18,EAFS,≤ 0.2
19,AVTK,≤ 0.2
20,MACE,≤ 0.2
21,WRFS,≤ 0.2
22,QIRT,0.608
23,FFVR,≤ 0.2
24,SQML,≤ 0.2

row,Variant,one-hybrid fitness for binding NBS DNA
1,KLGV,≤ 0.2
2,NARG,≤ 0.2
3,HATA,≤ 0.2
4,VNSV,≤ 0.2
5,MTMC,≤ 0.2
6,ADQG,≤ 0.2
7,KGRG,≤ 0.2
8,ILCT,≤ 0.2
9,RAQS,0.416
10,RIYD,≤ 0.2
11,YELC,≤ 0.2
12,NCSI,≤ 0.2
13,RVRP,≤ 0.2
14,LTTN,≤ 0.2
15,APMS,≤ 0.2
16,HVAN,≤ 0.2
17,IDNS,≤ 0.2
18,THRF,≤ 0.2
19,ATQD,≤ 0.2
20,QGLI,≤ 0.2
21,HQSG,≤ 0.2
22,HCMG,≤ 0.2
23,QMNN,≤ 0.2
24,RTTN,≤ 0.2

row,Variant,one-hybrid fitness for binding NBS DNA
1,IGPI,≤ 0.2
2,KPCN,≤ 0.2
3,VGKA,≤ 0.2
4,QCGE,≤ 0.2
5,LLCC,≤ 0.2
6,AFIS,≤ 0.2
7,LSVF,≤ 0.2
8,DYLF,≤ 0.2
9,NYLA,≤ 0.2
10,GWPR,≤ 0.2
11,YDVG,≤ 0.2
12,DHLC,≤ 0.2
13,KACM,≤ 0.2
14,GTYS,≤ 0.2
15,TETN,≤ 0.2
16,DQQE,≤ 0.2
17,WHSE,≤ 0.2
18,QMAN,≤ 0.2
19,CDRP,≤ 0.2
20,LASF,≤ 0.2
21,HGEK,≤ 0.2
22,DFNV,≤ 0.2
23,AARQ,≤ 0.2
24,LNRE,≤ 0.2

row,Variant,one-hybrid fitness for binding NBS DNA
1,EAPV,≤ 0.2
2,QAYL,≤ 0.2
3,AGNI,≤ 0.2
4,NHMS,≤ 0.2
5,HDMA,≤ 0.2
6,YKET,≤ 0.2
7,VLWY,≤ 0.2
8,HYRF,≤ 0.2
9,LKQN,≤ 0.2
10,TTAR,≤ 0.2
11,LNGE,≤ 0.2
12,QADV,≤ 0.2
13,KQHF,≤ 0.2
14,PSML,≤ 0.2
15,RHCN,≤ 0.2
16,HLYL,≤ 0.2
17,RWNK,≤ 0.2
18,RFPD,≤ 0.2
19,CEMW,≤ 0.2
20,ESIR,≤ 0.2
21,ANIL,≤ 0.2
22,RWCK,≤ 0.2
23,TPIN,≤ 0.2
24,QFQS,≤ 0.2

row,Variant,one-hybrid fitness for binding NBS DNA
1,VYLG,≤ 0.2
2,CKQG,≤ 0.2
3,QFRN,≤ 0.2
4,RCGP,≤ 0.2
5,TQGE,≤ 0.2
6,YADS,≤ 0.2
7,ALET,≤ 0.2
8,QINV,≤ 0.2
9,PDQF,≤ 0.2
10,GAYW,≤ 0.2
11,VPIL,≤ 0.2
12,KPDL,≤ 0.2
13,HAFV,≤ 0.2
14,TNFG,≤ 0.2
15,IMIR,≤ 0.2
16,GFPG,≤ 0.2
17,DNVT,≤ 0.2
18,HFQF,≤ 0.2
19,KRHL,≤ 0.2
20,REKL,≤ 0.2
21,PCYY,≤ 0.2
22,TVDH,≤ 0.2
23,TMEL,≤ 0.2
24,LAFT,≤ 0.2

row,Variant,one-hybrid fitness for binding NBS DNA
1,NNRY,≤ 0.2
2,RGED,≤ 0.2
3,LYFI,≤ 0.2
4,SFMV,≤ 0.2
5,RPVD,≤ 0.2
6,QRSV,0.388
7,PSTR,≤ 0.2
8,FYMR,≤ 0.2
9,FEGS,≤ 0.2
10,ARTL,≤ 0.2
11,ELET,≤ 0.2
12,AHEV,≤ 0.2
13,LVTG,≤ 0.2
14,RLWG,≤ 0.2
15,QTSR,0.786
16,RHML,≤ 0.2
17,PNMT,≤ 0.2
18,WGRR,≤ 0.2
19,CPRW,≤ 0.2
20,LTET,≤ 0.2
21,GYVG,≤ 0.2
22,TLKE,≤ 0.2
23,RAEA,≤ 0.2
24,NMGS,≤ 0.2

row,Variant,one-hybrid fitness for binding NBS DNA
1,QTNE,0.222
2,MVRP,≤ 0.2
3,KNTP,≤ 0.2
4,VETE,≤ 0.2
5,FPSR,≤ 0.2
6,QQAT,0.482
7,GDAW,≤ 0.2
8,KLFY,≤ 0.2
9,NARQ,≤ 0.2
10,VAQC,≤ 0.2
11,RGHL,≤ 0.2
12,QQGW,≤ 0.2
13,HWAR,≤ 0.2
14,DNHL,≤ 0.2
15,QIYM,≤ 0.2
16,LVRA,≤ 0.2
17,PELT,≤ 0.2
18,TPGK,≤ 0.2
19,HQSE,≤ 0.2
20,RADE,≤ 0.2
21,LCLT,≤ 0.2
22,LVVR,≤ 0.2
23,IIMW,≤ 0.2
24,LVID,≤ 0.2

row,Variant,one-hybrid fitness for binding NBS DNA
1,QAST,0.395
2,HEMR,≤ 0.2
3,SILC,≤ 0.2
4,RFVH,≤ 0.2
5,PDPN,≤ 0.2
6,PPCP,≤ 0.2
7,RSDY,≤ 0.2
8,SHNT,≤ 0.2
9,CHPR,≤ 0.2
10,HSGP,≤ 0.2
11,QRDS,0.468
12,GPWS,≤ 0.2
13,GQDS,≤ 0.2
14,RYEI,≤ 0.2
15,VKAS,≤ 0.2
16,TKDA,≤ 0.2
17,NPTN,≤ 0.2
18,RIPD,≤ 0.2
19,CWVC,≤ 0.2
20,PRYT,≤ 0.2
21,HVIG,≤ 0.2
22,GNAF,≤ 0.2
23,HTLM,≤ 0.2
24,ELME,≤ 0.2

row,Variant,one-hybrid fitness for binding NBS DNA
1,QQKY,0.63
2,RQNI,≤ 0.2
3,HWTV,≤ 0.2
4,VSKL,≤ 0.2
5,RPPI,≤ 0.2
6,SPWC,≤ 0.2
7,ASFM,≤ 0.2
8,ECAG,≤ 0.2
9,YACR,≤ 0.2
10,QKLS,0.392
11,RVKS,0.578
12,RFTG,≤ 0.2
13,LALY,≤ 0.2
14,WYWI,≤ 0.2
15,AMDC,≤ 0.2
16,EDSG,≤ 0.2
17,DLAF,≤ 0.2
18,QVHG,≤ 0.2
19,QLNH,0.242
20,DMQG,≤ 0.2
21,NMCS,≤ 0.2
22,RTLE,≤ 0.2
23,VLQI,≤ 0.2
24,SASN,≤ 0.2

row,Variant,one-hybrid fitness for binding NBS DNA
1,PLVV,≤ 0.2
2,RWNY,≤ 0.2
3,EIRS,≤ 0.2
4,NENC,≤ 0.2
5,MYNL,≤ 0.2
6,AGYT,≤ 0.2
7,KNAR,≤ 0.2
8,TLMT,≤ 0.2
9,YMWN,≤ 0.2
10,QYVF,≤ 0.2
11,HDAC,≤ 0.2
12,NGAV,≤ 0.2
13,GNPG,≤ 0.2
14,QQFI,≤ 0.2
15,GLVP,≤ 0.2
16,RSCD,≤ 0.2
17,RARW,≤ 0.2
18,VAIA,≤ 0.2
